The other results are listed elsewhere or left out. Sequences were assembled here from the parent chain. Values near 0.05 are background.
B1: TEV protease; numbered along this chain (parent)
chain: MGESLFKGPRDYNPISSSICHLTNESDGHTTSLYGIGFGPFIITNKHLFRRNNGTLVVQSLHGVFKVKDTTTLQQHLVDGRDMIIIRMPKDFPPFPQKLKFREPQREERICLVTTNFQTKSMSSMVSDTSCTFPSGDGIFWKHWIQTKDGQCGSPLVSTRDGFIVGIHSASNFTNTNNYFTSVPKNFMELLTNQEAQQWVSGWRLNADSVLWGGHKVFMVKPEEPFQPVKEATQL

Variants of: B1
Assay: raw area under fraction-flipped curve 0-4 h after induction (AUC4h, not background-subtracted), DNA-recorder readout of cleavage of the substrate (dimensionless); higher = more cleavage of the substrate by the protease variant
Settings: temperature: 34 °C; time window: 0-4 h after rhamnose induction
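Also: Bxb1 expression induced with 0.2% (w/v) L-rhamnose at OD600 near 0.5, cultures sampled hourly, flipped fraction per protease–substrate barcode pair counted by paired-end Illumina sequencing.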

Row | Variant | area with substrate ENLYFES | area with substrate ENLYFHS | area with substrate ENLYFIS | area with substrate ENLYFTS | area with substrate ENLYFFS | area with substrate ENLYFGS | area with substrate ENLYFNS | area with substrate ENLYFPS | area with substrate ENLYFSS | area with substrate ENLYFVS
1 | MGESLFKGPRDYNPISSSICHLTNESDGHTTSLYGIGFGPFIITNKHLFRRNNGTLVVQSLHGVFKVKDTTTLQQHLVDGRDMIIIRMPKDFPPFPQKLKFREPQREERICLVTTNFQTKSMSSMVSDTSCTFPSGDGIFWKHWIQTKDGQCGSPLVSTRDGFILGIHSASNFTNTNNYFTSVPKNFMELLTNQEAQQWVSGWRLNADSVLWGGHKVFMVKPEEPFQPVKEATQL [V165L] | 0.065 | 0.0605 | 0.0479 | 0.0449 |  |  |  |  |  | 
2 | MGESLFKGPRDYNPISSSICHLTNESDGHTTSLYGIGFGPFIITNKHLFRRNNGTLVVQSLHGVFKVKDTTTLQQHLVDGRDMIIIRMPKDFPPFPQKLKFREPQREERICLVTTNFQTKSMSSMVSDTSCTFPSGDGIFWKHWIQTKDGQCGSPLVSTRDGFIVGIHSASNFTNTNNYFTSVPKNFMELLTNQEAQQWVQGWRLNADSVLWGGHKVFMVKPEEPFQPVKEATQL [S201Q] | 0.0607 |  | 0.0527 |  | 0.0642 | 0.0585 | 0.0485 | 0.0482 | 0.0588 | 0.0627
3 | MGESLFKGPRDYNPISSSICHLTNESDGHTTSLYGIGFGPFIITNKHLFRRNNGTLVVQSLHGVFKVKDTTTLQQHLVDGRDMIIIRMPKDFPPFPQKLKFREPQREERICLVTTNFQTKSMSSMVSDTSCTFPSGDGIFWKHWIQTKDGQCGSPLVSTRDGFIVGIHSASNFTNTNNYFTSVPKNFMELLTNQEAQQWVSGDRLNADSVLWGGHKVFMVKPEEPFQPVKEATQL [W203D] | 0.0522 |  | 0.0565 | 0.0429 | 0.0658 |  |  | 0.0603 |  | 
4 | MGESLFKGPRDYNPISSSICHLTNESDGHTTSLYGIGFGPFIITNKHLFRRNNGTLVVQSLHGVFKVKDTTTLQQHLVDGRDMIIIRMPKDFPPFPQKLKFREPQREERICLVTTNFQTKSMSSMVSDTSCTFPSGDGIFWKHWIQTKDGQCGSPLVSTRDGFIVGIHSAKNFTNTNNYFTSVPKNFMELLTNQEAQQWVSGWRLNADSVLWGGHKVFMVKPEEPFQPVKEATQL [S171K] | 0.0834 |  | 0.0535 |  |  |  |  |  |  | 
5 | MGESLFKGPRDYNPISSSICHLTNESDGHTTSLYGIGFGPFIITNKHLFRRNNGTLVVQSLHGVFKVKDTTTLQQHLVDGRDMIIIRMPKDFPPFPQKLKFREPQREERICLVTTNFQTKSMSSMVSDTSCTFPSGDGIFWKHWIQTKDGQCGSPLVSTRDGFIVGIHSASNFTNTNNYFTSVPKNFMELLTNQEAQQWVSGWRLPADSVLWGGHKVFMVKPEEPFQPVKEATQL [N206P] | 0.0793 |  | 0.0585 |  |  |  |  | 0.0736 |  | 
6 | MGESLFKGPRDYNPISSSICHLTNESDGHTTSLYGIGFGPFIITNKHLFRRNNGTLVVQSLHGVFKVKDTTTLQQHLVDGRDMIIIRMPKDFPPFPQKLKFREPQREERICLVTTNFQTKSMSSMVSDTSCTFPSGDGIFWKHWIQTKDGQCGSPLVSTRDGFIVGIHSASNFTNTNNDFTSVPKNFMELLTNQEAQQWVSGWRLNADSVLWGGHKVFMVKPEEPFQPVKEATQL [Y179D] | 0.0506 |  |  |  |  |  |  | 0.0531 |  | 
7 | MGESLFKGPRDYNPISSSICHLTNESDGHTTSLYGIGFGPFIITNKHLFRRNNGTLVVQSLHGVFKVKDTTTLQQHLVDGRDMIIIRMPKDFPPFPQKLKFREPQREERICLVTTNFQTKSMSSMVSDTSCTFPSGDGIFWKHWIQTKDGQCGSPLVSTRDGFIVGIHSASNFTNTNNYFTSVPKNFMELLTNQEAQQWDSGWRLNADSVLWGGHKVFMVKPEEPFQPVKEATQL [V200D] | 0.0587 |  | 0.0569 |  | 0.07 | 0.06 |  | 0.0586 |  | 0.0485
8 | MGESLFKGPRDYNPISSSICHLTNESDGHTTSLYGIGFGPFIITNKHLFRRNNGTLVVQSLHGVFKVKDTTTLQQHLVDGRDMIIIRMPKDFPPFPQKLKFREPQREERICLVTTNFQTKSMSSMVSDTSCTFPSGDGIFWKHWIQTKDGQCGSPLVSTRDGPIVGIHSASNFTNTNNYFTSVPKNFMELLTNQEAQQWVSGWRLNADSVLWGGHKVFMVKPEEPFQPVKEATQL [F163P] | 0.0554 |  |  | 0.0455 |  | 0.0696 | 0.0614 |  |  | 
9 | MGESLFKGPRDYNPISSSICHLTNESDGHTTSLYGIGFGPFIITNKHLFRRNNGTLVVQSLHGVFKVKDTTTLQQHLVDGRDMIIIRMPKDFPPFPQKLKFREPQREERICLVTTNFQTKSMSSMVSDTSCTFPSGDGIFWKHWIQTKDGQCGSPLVSTRDGFVVGIHSASNFTNTNNYFTSVPKNFMELLTNQEAQQWVSGWRLNADSVLWGGHKVFMVKPEEPFQPVKEATQL [I164V] | 0.0688 | 0.0535 |  |  |  |  |  | 0.0591 |  | 
10 | MGESLFKGPRDYNPISSSICHLTNESDGHTTSLYGIGFGPFIITNKHLFRRNNGTLVVQSLHGVFKVKDTTTLQQHLVDGRDMIIIRMPKDFPPFPQKLKFREPQREERICLVTTNFQTKSMSSMVSDTSCTFPSGDGIFWKHWIQTKDGQCGSPLVSTRDGFIVGIHSASNFTNTNNYFKSVPKNFMELLTNQEAQQWVSGWRLNADSVLWGGHKVFMVKPEEPFQPVKEATQL [T181K] | 0.0573 | 0.0557 |  |  | 0.0556 | 0.0485 |  | 0.0696 | 0.0565 | 
11 | MGESLFKGPRDYNPISSSICHLTNESDGHTTSLYGIGFGPFIITNKHLFRRNNGTLVVQSLHGVFKVKDTTTLQQHLVDGRDMIIIRMPKDFPPFPQKLKFREPQREERICLVTTNFQTKSMSSMVSDTSCTFPSGDGIFWKHWIQTKDGQCGSPLVSTRDGFIVGIHSASNFTNTNNYFCSVPKNFMELLTNQEAQQWVSGWRLNADSVLWGGHKVFMVKPEEPFQPVKEATQL [T181C] | 0.0625 |  | 0.0363 |  |  |  |  |  |  | 

Same assay, conditions: temperature: 34 °C; time window: 0-4 h after rhamnose induction

Row | Variant | area with substrate ENLYFKS | area with substrate ENLYFMS | area with substrate ENLYFLS | area with substrate ENLYFRS | area with substrate ENLYFWS | area with substrate ENLYFYS
12 | MGESLFKGPRDYNPISSSICHLTNESDGHTTSLYGIGFGPFIITNKHLFRRNNGTLVVQSLHGVFKVKDTTTLQQHLVDGRDMIIIRMPKDFPPFPQKLKFREPQREERICLVTTNFQTKSMSSMVSDTSCTFPSGDGIFWKHWIQTKDGQCGSPLVSTRDGFIVGIHSASNFTNTNNYFTSVPKNFMELLTNQEAQQWVSGDRLNADSVLWGGHKVFMVKPEEPFQPVKEATQL [W203D] | 0.0792 | 0.0608 |  |  |  | 
13 | MGESLFKGPRDYNPISSSICHLTNESDGHTTSLYGIGFGPFIITNKHLFRRNNGTLVVQSLHGVFKVKDTTTLQQHLVDGRDMIIIRMPKDFPPFPQKLKFREPQREERICLVTTNFQTKSMSSMVSDTSCTFPSGDGIFWKHWIQTKDGQCGSPLVSTRDGFIVGIHSAKNFTNTNNYFTSVPKNFMELLTNQEAQQWVSGWRLNADSVLWGGHKVFMVKPEEPFQPVKEATQL [S171K] | 0.0608 | 0.0666 | 0.0452 | 0.0525 |  | 
14 | MGESLFKGPRDYNPISSSICHLTNESDGHTTSLYGIGFGPFIITNKHLFRRNNGTLVVQSLHGVFKVKDTTTLQQHLVDGRDMIIIRMPKDFPPFPQKLKFREPQREERICLVTTNFQTKSMSSMVSDTSCTFPSGDGIFWKHWIQTKDGQCGSPLVSTRDGFIVGIHSASNFTNTNNYFTSVPKNFMELLTNQEAQQWVSGWRLPADSVLWGGHKVFMVKPEEPFQPVKEATQL [N206P] | 0.0828 | 0.076 |  |  | 0.0549 | 
15 | MGESLFKGPRDYNPISSSICHLTNESDGHTTSLYGIGFGPFIITNKHLFRRNNGTLVVQSLHGVFKVKDTTTLQQHLVDGRDMIIIRMPKDFPPFPQKLKFREPQREERICLVTTNFQTKSMSSMVSDTSCTFPSGDGIFWKHWIQTKDGQCGSPLVSTRDGFIVGIHSASNFTNTNNDFTSVPKNFMELLTNQEAQQWVSGWRLNADSVLWGGHKVFMVKPEEPFQPVKEATQL [Y179D] |  | 0.0423 |  |  |  | 
16 | MGESLFKGPRDYNPISSSICHLTNESDGHTTSLYGIGFGPFIITNKHLFRRNNGTLVVQSLHGVFKVKDTTTLQQHLVDGRDMIIIRMPKDFPPFPQKLKFREPQREERICLVTTNFQTKSMSSMVSDTSCTFPSGDGIFWKHWIQTKDGQCGSPLVSTRDGFIVGIHSASNFTNTNNYFTSVPKNFMELLTNQEAQQWDSGWRLNADSVLWGGHKVFMVKPEEPFQPVKEATQL [V200D] | 0.0458 | 0.057 | 0.0669 |  |  | 
17 | MGESLFKGPRDYNPISSSICHLTNESDGHTTSLYGIGFGPFIITNKHLFRRNNGTLVVQSLHGVFKVKDTTTLQQHLVDGRDMIIIRMPKDFPPFPQKLKFREPQREERICLVTTNFQTKSMSSMVSDTSCTFPSGDGIFWKHWIQTKDGQCGSPLVSTRDGPIVGIHSASNFTNTNNYFTSVPKNFMELLTNQEAQQWVSGWRLNADSVLWGGHKVFMVKPEEPFQPVKEATQL [F163P] | 0.0587 | 0.0622 |  |  | 0.0658 | 0.0544
18 | MGESLFKGPRDYNPISSSICHLTNESDGHTTSLYGIGFGPFIITNKHLFRRNNGTLVVQSLHGVFKVKDTTTLQQHLVDGRDMIIIRMPKDFPPFPQKLKFREPQREERICLVTTNFQTKSMSSMVSDTSCTFPSGDGIFWKHWIQTKDGQCGSPLVSTRDGFIVGIHSASNFTNTNNYFKSVPKNFMELLTNQEAQQWVSGWRLNADSVLWGGHKVFMVKPEEPFQPVKEATQL [T181K] | 0.0596 | 0.0533 |  |  |  | 
